Laboratory results from the supplement of paper PMC3334620.
Whole data set: some 33,000 sequences, median “E-score (-0.5 to 0.5)” near -0.054, cut for the highest 2% near 0.39. The list shows a part of the results.

target: Ylr278c (UniProt Q05854); assay: PBM E-score (8-mer binding enrichment) (E-score (-0.5 to 0.5)); higher = stronger / more preferred TF binding; most listed sequences are background and not binding sites; settings: protein concentration: 200 nM; construct: GST-DNA-binding domain
Summary of the method: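 For each ungapped eight-base word taken together with its reverse complement, the Universal PBM Analysis Suite assigned an E-score. Binding data came from GST-tagged yeast transcription factors, applied at about 100-200 nM, on universal all-10-mer Agilent arrays made double-stranded by primer extension. Fluorescent anti-GST marked bound protein, and scans were normalised with masliner.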

Row | Sequence | PBM E-score
1 | CAGTAAGG | -0.174
2 | CTTAGCGC | 0.133
3 | AAACGAAT | -0.0901
4 | AGAACGAC | -0.174
5 | ACCGTGCT | -0.226
6 | GGACCGCC | 0.182
7 | CGCTCGAC | -0.16
8 | TCGGATCA | 0.225
9 | CTCCTGAC | -0.0625
10 | CAGGTATG | -0.131
11 | AGTATTGG | -0.229
12 | AAAAAGCA | -0.289
13 | GAGTTCAC | 0.0107
14 | TACCAATA | -0.145
15 | AAAGGATG | -0.189
16 | AAAGTCAC | -0.163
17 | CCACATAG | 0.0447
18 | TCACTACA | 0.00155
19 | CCCCCTAA | -0.321
20 | CCCTTTCG | 0.116
21 | AACTTCAC | -0.214
22 | AGGCTAGC | -0.282
23 | AGTTCTAG | -0.021
24 | CAGCCAAG | -0.217
25 | AACTGGGG | 0.00524

Row | Sequence | PBM E-score
26 | ATGTAACG | 0.0305
27 | AAAGACAC | -0.0398
28 | ATACTACC | -0.0824
29 | CGAACAAC | 0.0958
30 | ATAATACA | 0.0827
31 | CGTCAGCC | 0.127
32 | GATGAACC | 0.00674
33 | ATAGTCCG | 0.413
34 | GATGGGCC | 0.0873
35 | AGTCATAG | -0.238
36 | TAAGAGAA | -0.248
37 | TGAACACA | -0.133
38 | GATGGCTA | -0.0289
39 | CTTTCGAA | -0.198
40 | ATAGGTAC | -0.104
41 | AGACCATG | -0.306
42 | ACCTAGGG | -0.141
43 | GTTAGAGA | -0.272
44 | AATTCCCA | -0.035
45 | CTCTACTC | -0.156
46 | AAACTAGA | -0.217
47 | AGAACTTA | 0.0233
48 | CACGTCAC | -0.147
49 | GGGATCCA | 0.18
50 | CGTGTAGA | 0.012

Row | Sequence | PBM E-score
51 | CAATATAA | 0.0702
52 | TGCGAGCA | -0.144
53 | CGTACGGC | 0.0326
54 | ATATAACG | -0.0674
55 | AGGTGACG | -0.149
56 | AAGAGTCG | 0.0677
57 | CCCGAGAA | 0.293
58 | ATACCCAG | -0.221
59 | ATTGAACA | 0.011
60 | ACGGCTAG | -0.0811
61 | GGTGACTA | -0.0667
62 | CCTGATGC | 0.0346
63 | AACCCATT | -0.064
64 | ACTGTATG | -0.147
65 | CGGCCAGA | 0.173
66 | GGGTCCCA | -0.115
67 | CCGGCACG | 0.242
68 | CGGCTAAG | 0.0764
69 | AAAGCTAG | -0.173
70 | CTCGAGGC | -0.164
71 | CCCCGCAG | 0.302
72 | CCTCTATA | -0.301
73 | ACGAAAAA | -0.195
74 | CGCAGCGA | -0.0285
75 | CGCGCGTC | 0.216

Row | Sequence | PBM E-score
76 | ATTGTCGC | -0.0489
77 | ATATGAGG | -0.0358
78 | CGAAGCCC | 0.0895
79 | GGCCACAA | -0.15
80 | AAGCAGTG | 0.00988
81 | GAAACGGA | 0.298
82 | CGCAGGCC | 0.0932
83 | AGTCGGGC | 0.155
84 | ACTGCTCC | 0.22
85 | GGAGCTGA | 0.146
86 | AACGCGTG | -0.0606
87 | AGGTTCAG | 0.0375
88 | CTTCCTCC | 0.0756
89 | CTTAAAAA | -0.239
90 | AAGTCACC | -0.13
91 | CTAAGCTA | -0.168
92 | ACGTCGGA | 0.385
93 | ACAGCTGA | -0.209
94 | AGAATTAT | 0.00541
95 | CGCGCCGC | 0.292
96 | CATGGACG | -0.0676
97 | CTGTGCCA | -0.172
98 | CGCTCCCG | 0.115
99 | ACCAACCC | -0.146
100 | CTTAGATC | -0.228

Row | Sequence | PBM E-score
101 | CTGAACAA | -0.015
102 | CGAAATCG | 0.288
103 | AAGGGTAA | -0.0839
104 | GATGGTCA | -0.0309
105 | AAATCAGG | -0.222
106 | CCAGAGGA | -0.201
107 | CCGAACGC | 0.298
108 | ACACGAGG | -0.182
109 | CCTCCGAG | 0.426
110 | TGCAAGAA | -0.0281
111 | GAATGGAA | 0.0768
112 | GGATCGGA | 0.438
113 | TCTGCACA | 0.0219
114 | GACTGTTA | -0.189
115 | CTGTTCCA | -0.233
116 | AAGCAGGC | -0.148
117 | ATCATCCG | 0.219
118 | TCGGCACA | 0.159
119 | ACCCGGCT | 0.204
120 | GACGGCCC | 0.00504
121 | CCGAGTTA | 0.147
122 | ATGGGTGC | -0.133
123 | CTTCGTGA | -0.116
124 | AGGAGTCC | 0.13
125 | AGGATCTC | -0.00173

Row | Sequence | PBM E-score
126 | AAACACTC | 0.0185
127 | CTGCACAA | -0.112
128 | CAACCGAC | -0.00594
129 | AGCACACA | -0.232
130 | ATTTGATG | -0.035
131 | ACGCTCTG | -0.251
132 | CCACCATA | -0.0137
133 | GTCTCCCA | -0.213
134 | ACATTCAC | -0.00364
135 | ACGTTAAC | -0.178
136 | CGAAGATA | 0.143
137 | AGAAGGGG | -0.198
138 | CATCCTTA | -0.207
139 | CCTGCGCG | 0.135
140 | CCGCCTCA | 0.261
141 | ATTGACTA | -0.197
142 | CCAGGGAG | -0.259
143 | CTCTTGGA | -0.146
144 | GAAATCTC | 0.031
145 | GGCCGTCA | 0.0695
146 | GTGCACGA | -0.239
147 | GGAGTGAC | 0.257
148 | CAGAGAGG | -0.244
149 | CCTTCTCG | -0.0328
150 | ATGATATG | -0.00024

Row | Sequence | PBM E-score
151 | GTCGAACA | -0.147
152 | ACTTTGAA | -0.0286
153 | CAGTAGTC | -0.207
154 | CACCGCTC | 0.0836
155 | ATCACCAC | 0.0318
156 | ATAAGGGC | -0.0568
157 | ACTTAGCG | -0.00089
158 | AGGCAAAC | -0.207
159 | AATCTAAA | -0.00076
160 | CTGATATC | 0.105
161 | AGATGAGA | -0.162
162 | ACCCTGAT | -0.0325
163 | AACGATGG | -0.0108
164 | ACAGAACT | -0.201
165 | AAGTCTAG | -0.172
166 | ACCATGAC | 0.0134
167 | ACACAGTA | -0.188
168 | ATTTGACC | 0.0505
169 | GCAAGGAC | 0.0488
170 | GCACCTGA | -0.27
171 | AAGACAAC | -0.0278
172 | GCGGAAAA | 0.379
173 | GATAACAA | 0.0715
174 | GAAGACTA | -0.148
175 | GATGGCCC | -0.039

Row | Sequence | PBM E-score
176 | GCTACTTA | -0.351
177 | ACTAACGG | 0.131
178 | ATGGCGTA | -0.167
179 | CATGGTGA | -0.193
180 | GCGTCCCC | -0.0365
181 | AGGGTGGC | 0.0251
182 | CGCTCGAG | 0.0105
183 | GACTGAGA | -0.225
184 | CTACTCCA | -0.0976
185 | ACTCGCCT | -0.104
186 | ACCGACCT | 0.0213
187 | CTCCACGC | -0.0878
188 | CCCTAGTA | -0.0706
189 | GACTCTGC | -0.135
190 | GGAATGTA | 0.255
191 | CTACCTAA | -0.0506
192 | AGCTGGAC | -0.145
193 | AAAACTAC | 0.13
194 | AACAGGAT | -0.179
195 | GGGCCAAC | -0.0523
196 | CTTTGGCA | -0.163
197 | AAAAGGAA | 0.0111
198 | CCAATGTC | -0.156
199 | ACCGGACC | 0.384
200 | CATGGCTC | -0.158

Row | Sequence | PBM E-score
201 | GGTCAAAA | -0.183
202 | CCCAGGGC | -0.12
203 | CATGTGAA | -0.0753
204 | AGTCGGCG | 0.215
205 | GAAGTTTA | 0.121
206 | ACTCGTGC | -0.124
207 | GAGGGATC | 0.00739
208 | CCCAACGA | -0.0549
209 | ACCTTAGT | -0.172
210 | GACGACTC | -0.0544
211 | TAAGCAGA | -0.0723
212 | CCAACGCA | -0.0713
213 | AGGACTCA | -0.301
214 | AACCTGAC | -0.185
215 | AGACCTCA | -0.32
216 | ATGGCTCA | -0.345
217 | AATGTCCT | -0.061
218 | AGGTACTC | -0.113
219 | ACCTGCGG | 0.267
